Experimental data taken from PubChem BioAssay AID1745853 (National Center for Advancing Translational Sciences (NCATS), 2022).
The list shows a part of the results. The main result of the screen is listed elsewhere. These columns were measured beside it and carry no call.

Columns and labels:
Test in all cases: Primary Screen for Target Class Profiling of Small Molecule Inhibitors of Methyltransferases
[1] = molecular target: Glycine N-methyltransferase (Homo sapiens) (UniProt Q14749); conditions: purified enzyme, MTase-Glo SAH luminescence; measured here: GNMT inhibition; at 40 µM; stronger effect = lower value
Outline: (§1)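 Each enzyme was assayed with SAM and its substrate. SAH formation detected by MTase-Glo luminescence; single-point 40 uM screen[…].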

[2] = molecular target: Guanidinoacetate N-methyltransferase (Homo sapiens) (UniProt Q14353); conditions: purified enzyme, MTase-Glo SAH luminescence; measured here: GAMT inhibition; at 40 µM; stronger effect = lower value
Outline: as §1

[3] = molecular target: Histamine N-methyltransferase (Homo sapiens) (UniProt P50135); conditions: purified enzyme, MTase-Glo SAH luminescence; measured here: HNMT inhibition; at 40 µM; stronger effect = lower value
Outline: as §1

[4] = molecular target: Nicotinamide N-methyltransferase (Homo sapiens) (UniProt P40261); conditions: purified enzyme, MTase-Glo SAH luminescence; measured here: NNMT inhibition; at 40 µM; stronger effect = lower value
Outline: as §1

[5] = molecular target: Phenylethanolamine N-methyltransferase (Homo sapiens) (UniProt P11086); conditions: purified enzyme, MTase-Glo SAH luminescence; measured here: PNMT inhibition; at 40 µM; stronger effect = lower value
Outline: as §1
% is scaled to controls: 0 for no effect and ±100 for the full control effect.

With O=C(Cn1ccc2cc(S(=O)(=O)N3CCCC3)ccc21)NCCc1ccccc1 the activity change, negative = inhibition [1] was -1.1%, the activity change, negative = inhibition [2] was 2.88% and the activity change, negative = inhibition [3] was -4.21%. For the same compound, the activity change, negative = inhibition [4] was -3.59% and the activity change, negative = inhibition [5] was -12.6%.
In the case of CCOc1ccccc1C(=O)N1CCC(c2n[nH]c(=O)n2Cc2ccc(OC)cc2)CC1, the activity change, negative = inhibition [1] was -3.83%, the activity change, negative = inhibition [2] was -1.41% and the activity change, negative = inhibition [3] was -13.1%. For the same compound, the activity change, negative = inhibition [4] was -5.65% and the activity change, negative = inhibition [5] was -0.011%.
In the case of CC1(C(=O)NC2CCCCCC2)Cn2c(ccc2-c2ccco2)C(=O)N1CCc1cccs1 (stereo not given), the activity change, negative = inhibition [1] was 0.738%, the activity change, negative = inhibition [2] was 0% and the activity change, negative = inhibition [3] was 5.45%. It also gave an activity change, negative = inhibition [4] of -1.2% and an activity change, negative = inhibition [5] of 1.87%.
For Cn1c(=O)c2ccccc2n2c(CCC(=O)NCCc3ccccc3)nnc12, the activity change, negative = inhibition [1] was 0.495%, the activity change, negative = inhibition [2] was -0.572% and the activity change, negative = inhibition [3] was -3.06%. It also gave an activity change, negative = inhibition [4] of -12.9% and an activity change, negative = inhibition [5] of -1.74%.
For CC(=O)OC1C(O)C2C(C)C3=CC(=O)OC3(O)CC2C2(C)CCCC(C)(CO)C12 (stereo not given), the activity change, negative = inhibition [1] was 0%, the activity change, negative = inhibition [2] was 3.85% and the activity change, negative = inhibition [3] was 6.86%. The activity change, negative = inhibition [4] was -5.84% and the activity change, negative = inhibition [5] was 7.27%.
Work on NC(=O)c1ccccc1 yielded an activity change, negative = inhibition [1] of -9.82%, an activity change, negative = inhibition [2] of 0.936% and an activity change, negative = inhibition [3] of -2.13%. The activity change, negative = inhibition [4] was -13.3% and the activity change, negative = inhibition [5] was 5.66%.
Work on O=c1c2ccccc2n2c(-c3ccc(Cl)cc3)nnc2n1Cc1ccc(F)cc1 yielded an activity change, negative = inhibition [1] of -10.4%, an activity change, negative = inhibition [2] of 0.643% and an activity change, negative = inhibition [3] of -4.29%. It also gave an activity change, negative = inhibition [4] of -10.2% and an activity change, negative = inhibition [5] of -5.16%.
For CC1(C)CC[C@]2(C(=O)O[C@@H]3O[C@H](CO)[C@@H](O)[C@H](O)[C@H]3O)CC[C@]3(C)C(=CCC4[C@@]5(C)CC[C@H](O[C@@H]6O[C@H](C(=O)O)[C@@H](O)[C@H](O)[C@H]6O)C(C)(C)C5CC[C@]43C)C2C1 (stereo not given in full), the activity change, negative = inhibition [1] was 4.03%, the activity change, negative = inhibition [2] was 5.99% and the activity change, negative = inhibition [3] was 8.73%. The activity change, negative = inhibition [4] was -6.96% and the activity change, negative = inhibition [5] was 3.08%.
In the case of O=C(c1ccccc1)c1ccc2nc(NC(=O)c3csc(C4CCN(c5ncnc6ccsc56)CC4)n3)[nH]c2c1, the activity change, negative = inhibition [1] was -0.231%, the activity change, negative = inhibition [2] was -24% and the activity change, negative = inhibition [3] was 4.12%. It also gave an activity change, negative = inhibition [4] of -65.9% and an activity change, negative = inhibition [5] of -36.8%.
With CCc1ccccc1NC(=O)Cn1nc2n(CC(C)C)c(=O)c3ccc(C(=O)NC(C)CC)cc3n2c1=O (stereo not given) the activity change, negative = inhibition [1] was -5.15%, the activity change, negative = inhibition [2] was 1.7% and the activity change, negative = inhibition [3] was -3.93%. For the same compound, the activity change, negative = inhibition [4] was -2.44% and the activity change, negative = inhibition [5] was -0.611%.
For CC(C)CCNC(=O)C1(C)Cn2nc(C(=O)N3CCN(C4CCCCC4)CC3)cc2C(=O)N1C (stereo not given), the activity change, negative = inhibition [1] was 10.4%, the activity change, negative = inhibition [2] was 0% and the activity change, negative = inhibition [3] was 6.74%. The activity change, negative = inhibition [4] was 10.1% and the activity change, negative = inhibition [5] was 5.28%.
For O=C(Nc1ncc(SCCN2CCCC2)s1)C1(c2ccc(S(=O)(=O)C3CC3)cc2)CC1C1CCCCC1 (stereo not given), the activity change, negative = inhibition [1] was 3.71%, the activity change, negative = inhibition [2] was -6.67% and the activity change, negative = inhibition [3] was -13.2%. It also gave an activity change, negative = inhibition [4] of -35.3% and an activity change, negative = inhibition [5] of -11.1%.
For Cc1ccc(N2C(=O)c3ccccc3CC2(C)C(=O)NCc2ccccc2C)cc1 (stereo not given), the activity change, negative = inhibition [1] was 3.07%, the activity change, negative = inhibition [2] was 1.1% and the activity change, negative = inhibition [3] was 5.18%. For the same compound, the activity change, negative = inhibition [4] was 1.37% and the activity change, negative = inhibition [5] was 4.39%.
CC1(C(=O)NCc2ccccc2)Cn2c(ccc2-c2ccco2)C(=O)N1Cc1ccccc1 (stereo not given) gave an activity change, negative = inhibition [1] of -1.28%, an activity change, negative = inhibition [2] of 3.46% and an activity change, negative = inhibition [3] of 2.69%. It also gave an activity change, negative = inhibition [4] of -6.7% and an activity change, negative = inhibition [5] of -3.66%.
CCn1ccnc1CN(C)Cc1cccc(OCC(O)CN(C)C2CCCCC2)c1 (stereo not given) showed an activity change, negative = inhibition [1] of -2.5%, an activity change, negative = inhibition [2] of -3.67% and an activity change, negative = inhibition [3] of -19.7%. The activity change, negative = inhibition [4] was -11.4% and the activity change, negative = inhibition [5] was -7.08%.
Compound CC(CN(C)C)CN1c2ccccc2CCc2ccccc21 (stereo not given) has an activity change, negative = inhibition [1] of -1.59%, an activity change, negative = inhibition [2] of 10.4% and an activity change, negative = inhibition [3] of -5.03%. For the same compound, the activity change, negative = inhibition [4] was -9.93% and the activity change, negative = inhibition [5] was 4.86%.
